Measured values published in patent US20240209093A1 (I MAB BIOPHARMA, published 2024).

Target: T1, Tag1-CD47 (UniProt Q08722 in part)
T1 construct: Bought kit reagent
Test: HTRF CD47/SIRPα binding assay (Cisbio): blocking of Tag2-SIRPa binding to Tag1-CD47; axis numbers -3 to 3 read as log10 of nM
Description: Fluorescence data were read on a PerkinElmer Envision plate reader using laser as light source.

Sequence of Tag1-CD47 (Q08722 19-139 limits assumed): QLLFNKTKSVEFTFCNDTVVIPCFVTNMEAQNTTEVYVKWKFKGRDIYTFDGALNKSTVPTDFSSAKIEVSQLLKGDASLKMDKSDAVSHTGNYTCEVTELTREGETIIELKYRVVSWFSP

IC50 (read off the curve): ~800 pM
B1: 13H3-IgG1-93VH-6 (bispecific antibody)
heavy: EVQLVESGGGLVKPGGSLRLSCAASGLTFERAWMNWVRQAPGKGLEWVGRIKRKTDGETTDYAAPVKGRFSISRDDSKNTLYLQMNSLKTEDTAVYYCAGSNRAFDIWGQGTMVTVSS[human IgG1 constant region not printed]GGGGSGGGGSGGGGSGGGGSEVQLVESGGGLVQPGGSLRLSCAASGFTFTFRHYVMGWFRQAPGKEREFVAAISWSGSGSYYADSVKGRFTISRDNSKNTVYLQMNSLRAEDTAVYYCAADMTTRMSQASREYDYWGQGTLVTVSS
light: DIVMTQSPDSLAVSLGERATINCKSSQSVLYAGNNRNYLAWYQQKPGQPPKLLINQASTRASGVPDRFSGSGSGTEFTLIISSLQAEDVAIYYCQQYYTPPLAFGGGTKLEIKRTVAAPSVFIFPPSDEQLKSGTASVVCLLNNFYPREAKVQWKVDNALQSGNSQESVTEQDSKDSTYSLSSTLTLSKADYEKHKVYACEVTHQGLSSPVTKSFNRGEC
notes: Symmetric 'two to two' anti-CD47/PD-L1 bispecific; 93-VH-6 at the C-terminus of the heavy chain
